# In the supplement of paper PMC8728848:
# Some of the results follow.
# Legend:
# Test in all cases: glycan array binding signal (z-score within array); higher = stronger binding
# Conditions in all cases: glycan notation: IUPAC condensed, linker removed; mutation: H59Q
# [1] = molecular target: Gal(b1-4)GlcNAc(b1-6)Gal(b1-4)GlcNAc
# Method in brief: (§1)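 Columns mapping to the same glycan were averaged after glycan names were converted to IUPAC-condensed notation. The data come from 3228 arrays in the Consortium for Functional Glycomics database, limited to those with an available protein sequence. Binding is reported as a within-array Z-score averaged across arrays of one protein sequence and across linkers.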
# [2] = molecular target: Gal(b1-4)GlcNAc(b1-6)GalNAc
# Method in brief: as §1
# [3] = molecular target: Gal(b1-4)GlcNAc(b1-6)[Gal(b1-3)]GalNAc
# Method in brief: as §1
# [4] = molecular target: Gal(b1-4)GlcNAc(b1-6)[Gal(b1-4)GlcNAc(b1-3)]GalNAc
# Method in brief: as §1
# Gal(b1-4)GlcNAc6P = molecular target: Gal(b1-4)GlcNAc6P
# Method in brief: as §1
# Gal(b1-6)Gal = molecular target: Gal(b1-6)Gal
# Method in brief: as §1
# Gal3S(b1-3)GalNAc = molecular target: Gal3S(b1-3)GalNAc
# Method in brief: as §1
# Gal3S(b1-3)GlcNAc = molecular target: Gal3S(b1-3)GlcNAc
# Method in brief: as §1
# [5] = molecular target: Gal3S(b1-3)[Fuc(a1-4)]GlcNAc
# Method in brief: as §1
# Gal3S(b1-4)Glc = molecular target: Gal3S(b1-4)Glc
# Method in brief: as §1
# Gal3S(b1-4)Glc6S = molecular target: Gal3S(b1-4)Glc6S
# Method in brief: as §1
# Gal3S(b1-4)GlcNAc = molecular target: Gal3S(b1-4)GlcNAc
# Method in brief: as §1
# [6] = molecular target: Gal3S(b1-4)[Fuc(a1-3)]Glc6S
# Method in brief: as §1
# [7] = molecular target: Gal3S(b1-4)[Fuc(a1-3)]GlcNAc
# Method in brief: as §1
# [8] = molecular target: Gal3S(b1-4)[Fuc(a1-3)]GlcNAc6S
# Method in brief: as §1
# Gal3S4S(b1-4)GlcNAc = molecular target: Gal3S4S(b1-4)GlcNAc
# Method in brief: as §1
# Gal3S6S(b1-4)GlcNAc = molecular target: Gal3S6S(b1-4)GlcNAc
# Method in brief: as §1
# Gal3S6S(b1-4)GlcNAc6S = molecular target: Gal3S6S(b1-4)GlcNAc6S
# Method in brief: as §1
# Gal4S(b1-4)GlcNAc = molecular target: Gal4S(b1-4)GlcNAc
# Method in brief: as §1
# Gal4S6S(b1-4)GlcNAc = molecular target: Gal4S6S(b1-4)GlcNAc
# Method in brief: as §1
# Gal6P(b1-4)GlcNAc = molecular target: Gal6P(b1-4)GlcNAc
# Method in brief: as §1
# Gal6S(b1-3)GlcNAc = molecular target: Gal6S(b1-3)GlcNAc
# Method in brief: as §1
# Gal6S(b1-3)GlcNAc6S = molecular target: Gal6S(b1-3)GlcNAc6S
# Method in brief: as §1
binder,measurement,setting,value
"rAAL-H59Q (Agrocybe aegerita), Q6WY08 (protein) MQGVNIYNISAGTSVDLAAPVTTGDIVTFFSSALNLNAGAGNPNNTTLNLFAENGAYLLQIAFRLQENVIIFNSRQPDGPWLVEQRVSDVANQFAGIDGKAMVTVFDHGDKYQVVINEKTVIQYTKQISGLTLSLSYNATEETSIFSTVVEAVTYTGLALEHHHHHH",glycan array binding signal (z-score),[1],-0.156
same,glycan array binding signal (z-score),[2],-0.016
same,glycan array binding signal (z-score),[3],-0.072
same,glycan array binding signal (z-score),[4],-0.122
same,glycan array binding signal (z-score),Gal(b1-4)GlcNAc6P,-0.091
same,glycan array binding signal (z-score),Gal(b1-6)Gal,0.039
same,glycan array binding signal (z-score),Gal3S(b1-3)GalNAc,7.76
same,glycan array binding signal (z-score),Gal3S(b1-3)GlcNAc,0.192
same,glycan array binding signal (z-score),[5],-0.051
same,glycan array binding signal (z-score),Gal3S(b1-4)Glc,0.7
same,glycan array binding signal (z-score),Gal3S(b1-4)Glc6S,0.468
same,glycan array binding signal (z-score),Gal3S(b1-4)GlcNAc,0.615
same,glycan array binding signal (z-score),[6],-0.092
same,glycan array binding signal (z-score),[7],-0.066
same,glycan array binding signal (z-score),[8],0.694
same,glycan array binding signal (z-score),Gal3S4S(b1-4)GlcNAc,-0.119
same,glycan array binding signal (z-score),Gal3S6S(b1-4)GlcNAc,-0.115
same,glycan array binding signal (z-score),Gal3S6S(b1-4)GlcNAc6S,0.071
same,glycan array binding signal (z-score),Gal4S(b1-4)GlcNAc,-0.143
same,glycan array binding signal (z-score),Gal4S6S(b1-4)GlcNAc,-0.066
same,glycan array binding signal (z-score),Gal6P(b1-4)GlcNAc,-0.061
same,glycan array binding signal (z-score),Gal6S(b1-3)GlcNAc,-0.084
same,glycan array binding signal (z-score),Gal6S(b1-3)GlcNAc6S,-0.113
